Data as given in the supplement of paper PMC6531468.
The list shows a part of the results. Values come from read counts of a selection and are noisy. Each score is taken over the longer molecules that contain the sequence shown.

Tested on: IMP3 KH1-2
Experiment: 6-mer SELEX enrichment z-score vs GST control; IMP3 is the RNA-binding protein IGF2BP3; higher = more enriched by binding
Settings: construct: KH1-2 (164-376); SELEX round: R4
Protocol: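 SELEX-seq with GST-tagged IMP3 KH1-2 (Pro164-Phe376) and an N40 RNA pool, round 4 (stringent 300/600 mM KCl washes). 6-mer z-score of sequence-tag enrichment normalised to the corresponding GST SELEX round; RNA k-mers written as DNA (T for U).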

Chain of IMP3 KH1-2 (chain, as listed by the source): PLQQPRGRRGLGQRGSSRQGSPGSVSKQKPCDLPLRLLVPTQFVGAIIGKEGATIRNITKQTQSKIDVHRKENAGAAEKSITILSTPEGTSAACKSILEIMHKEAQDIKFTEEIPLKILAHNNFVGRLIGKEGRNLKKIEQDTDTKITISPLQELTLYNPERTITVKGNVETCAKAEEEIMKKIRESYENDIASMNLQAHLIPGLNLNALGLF

Sequence	6-mer SELEX enrichment z-score
TCATTA	1.47
GCCAGT	0.302
CCGGAG	-0.549
ATCACA	2.43
GTGCGG	0.472
ACCATT	0.947
CTTGTA	-0.163
CTTATC	0.298
CCATTC	0.802
CCAAGC	-1.69
GGATAT	0.605
GCAGAC	-0.029
TGAGTC	0.128
CGTCGG	0.517
ACATCG	-0.285
TATATC	1.1
TAACTA	0.968
CTCGCT	-0.096
AGGCGA	-0.086
AAGGTC	-0.123

Sequence	6-mer SELEX enrichment z-score
TCGCCC	-0.251
GGTGGT	0.463
ACGAGC	-4.5
CGCTAA	0.127
TGCAAT	0.701
ACGGCT	0.281
CTGCTA	0.345
AACATC	0.058
TCGAGT	-0.843
TCGGAA	-0.242
CAGGAC	0.446
CGTCGC	-0.177
TAAACC	-0.785
CCAGGA	-0.311
GTTGCA	0.041
TGAAAT	0.465
CTATTC	0.663
TTTTTT	0.979
GCCCCG	-0.471
TTGCTC	0.085
